The source of these data is the DeepSol protein solubility set.

A short description of the data set: soluble on expression in E. coli; label from the status in PepcDB or PDB records.

As to “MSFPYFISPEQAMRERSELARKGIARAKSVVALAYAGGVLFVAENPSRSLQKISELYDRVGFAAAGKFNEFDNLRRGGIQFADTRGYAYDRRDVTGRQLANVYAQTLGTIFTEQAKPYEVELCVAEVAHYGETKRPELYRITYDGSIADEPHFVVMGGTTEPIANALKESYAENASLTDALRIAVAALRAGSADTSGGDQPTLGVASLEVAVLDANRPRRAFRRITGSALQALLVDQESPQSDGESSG”, the “soluble on expression in E. coli” value is recorded as “soluble”. For “LTYTDCTESGQNLCLCEGSNVCGQGNKCILGSDGEKNQCVTGEGTPKPQSHNDGDFEEIPEEYLQ” the value was “soluble”.
